Data: the supplement of paper PMC7826260
The other results are listed elsewhere or left out. The data describe in vitro nicking of single-stranded DNA by Rep domains (3 µM enzyme, 1 h, 37 °C); shown is the middle of each 90-letter strand. Uncut reads are compared with the no-enzyme pool on a log2 scale; strong cutting gives strongly negative numbers. There is no active / inactive call. The scaling is to total reads; where an enzyme cuts many sequences, the uncut ones exceed 0.

How the values were obtained:
Test in all cases: uncleaved DNA left, log2 of reads against the no-enzyme library (log2 ratio); higher = less cleavage (more negative = more Rep cleavage of the k-mer); sequences stand for … in CTCGTCCG…ACCGGAGA
[1] = test system: T1, Rep nickase domain of Muscovy duck circovirus
T1 sequence (residues 1-111 of Rep, tag left off): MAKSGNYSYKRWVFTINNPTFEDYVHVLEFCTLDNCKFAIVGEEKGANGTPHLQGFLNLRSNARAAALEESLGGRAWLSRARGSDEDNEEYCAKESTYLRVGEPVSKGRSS
Procedure: (§1)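 A pool of 90-nt single-stranded DNAs with seven random bases just before the constant AC of the nick site (name = the seven bases) was cut by 3 µM recombinant His6-SUMO-tagged Rep nickase domain (300 nM DNA, 50 mM HEPES pH 8.0, 50 mM NaCl, 1 mM MnCl2, 1 h, 37 °C, three replicates). Uncut DNA was amplified and sequenced.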

[2] = test system: T2, Rep nickase domain of banana bunchy top virus
T2 sequence (residues 1-94 of Rep, tag left off): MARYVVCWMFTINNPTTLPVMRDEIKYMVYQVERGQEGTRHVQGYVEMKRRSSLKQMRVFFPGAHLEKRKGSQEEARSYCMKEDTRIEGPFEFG
Procedure: as §1

[3] = test system: T3, Rep nickase domain of cabbage leaf curl virus
T3 sequence (residues 1-116 of Rep, tag left off): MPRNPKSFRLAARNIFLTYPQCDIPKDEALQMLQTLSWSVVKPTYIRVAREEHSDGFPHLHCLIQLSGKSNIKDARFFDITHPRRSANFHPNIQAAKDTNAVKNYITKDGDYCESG
Procedure: as §1

[4] = test system: T4, Rep nickase domain of chickpea chlorotic dwarf virus
T4 sequence (residues 1-124 of Rep, tag left off): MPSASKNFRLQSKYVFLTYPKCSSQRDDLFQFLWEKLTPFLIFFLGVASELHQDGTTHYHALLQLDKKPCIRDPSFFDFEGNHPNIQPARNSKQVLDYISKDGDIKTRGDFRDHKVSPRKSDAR
Procedure: as §1

[5] = test system: T5, Rep nickase domain of faba bean necrotic yellows virus
T5 sequence (residues 1-98 of Rep, tag left off): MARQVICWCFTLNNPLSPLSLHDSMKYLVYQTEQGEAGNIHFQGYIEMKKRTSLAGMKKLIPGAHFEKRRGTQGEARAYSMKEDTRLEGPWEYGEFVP
Procedure: as §1

[6] = test system: T6, Rep nickase domain of maize striate mosaic virus
T6 sequence (residues 1-117 of Rep, tag left off): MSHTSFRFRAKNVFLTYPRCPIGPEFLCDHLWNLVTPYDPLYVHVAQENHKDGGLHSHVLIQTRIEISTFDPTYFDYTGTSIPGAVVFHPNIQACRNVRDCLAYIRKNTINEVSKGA
Procedure: as §1

[7] = test system: T7, Rep nickase domain of porcine circovirus 2
T7 sequence (residues 2-116 of Rep, tag left off): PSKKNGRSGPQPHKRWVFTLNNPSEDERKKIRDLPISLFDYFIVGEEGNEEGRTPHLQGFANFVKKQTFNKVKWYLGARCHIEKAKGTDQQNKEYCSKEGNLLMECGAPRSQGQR
Procedure: as §1

[8] = test system: T8, Rep nickase domain of tomato golden mosaic virus
T8 sequence (residues 1-124 of Rep, tag left off): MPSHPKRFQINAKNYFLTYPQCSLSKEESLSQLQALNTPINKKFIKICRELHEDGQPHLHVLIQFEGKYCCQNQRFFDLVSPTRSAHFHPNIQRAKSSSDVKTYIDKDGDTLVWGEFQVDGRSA
Procedure: as §1

[9] = test system: T9, Rep nickase domain of tomato yellow leaf curl virus
T9 sequence (residues 1-136 of Rep, tag left off): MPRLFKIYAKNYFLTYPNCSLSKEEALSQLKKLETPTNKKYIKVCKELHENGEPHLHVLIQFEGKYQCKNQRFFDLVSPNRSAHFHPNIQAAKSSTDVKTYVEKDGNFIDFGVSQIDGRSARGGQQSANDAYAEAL
Procedure: as §1

[10] = test system: T10, Rep nickase domain of wheat dwarf virus
T10 sequence (residues 1-137 of Rep, tag left off): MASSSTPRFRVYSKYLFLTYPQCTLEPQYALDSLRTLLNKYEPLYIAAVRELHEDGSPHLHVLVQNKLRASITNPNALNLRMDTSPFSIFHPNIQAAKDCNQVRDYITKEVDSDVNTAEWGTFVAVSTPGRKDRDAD
Procedure: as §1

Sequence	uncleaved DNA left (log2) [1]	uncleaved DNA left (log2) [2]	uncleaved DNA left (log2) [3]	uncleaved DNA left (log2) [4]	uncleaved DNA left (log2) [5]	uncleaved DNA left (log2) [6]	uncleaved DNA left (log2) [7]	uncleaved DNA left (log2) [8]	uncleaved DNA left (log2) [9]	uncleaved DNA left (log2) [10]
CTACTCG	0.0402	-0.0149	-0.957	-1.29	-0.0199	-1.1	0.155	-0.13	-0.0199	-0.141
ATTGGTG	0.0126	0.0514	-0.539	-0.474	0.0821	-0.961	0.17	-0.0217	0.0563	-0.0837
CTGACCG	-0.122	0.0369	0.0599	0.887	-0.0673	0.825	0.0379	0.065	-0.0557	-0.0283
ATCGATG	-0.00639	-0.0693	-0.237	0.409	0.157	0.505	0.0562	-0.0422	-0.264	-0.0328
CCTCCAG	0.0952	0.0509	-0.592	-0.424	0.00561	-0.949	0.25	0.0793	0.163	-0.102
ACAGTCC	0.0416	-0.0304	-0.166	-0.132	0.0391	-0.465	0.0377	-0.0604	-0.234	-0.0229
CCGTAGT	-1.61	-0.29	-1.04	-1.45	-0.736	-0.895	-3.23	-0.469	-0.0541	-1.18
TAACTAT	-0.103	-0.0472	-3.19	-3.48	-0.0662	-1.17	-0.351	-0.67	-0.00416	-2.6
GGCAAAA	0.145	0.208	0.649	1.5	0.00695	1.79	0.32	0.166	0.209	0.248
AAACCTT	-0.182	-0.192	-1.04	-2.56	-0.109	-0.197	-0.937	-0.272	-0.0569	-0.403
TTTAACC	-0.193	0.0234	-0.227	-1.6	0.0155	-0.423	-1.06	-0.0176	0.0658	0.0507
TTTATCC	-0.0167	0.0347	0.176	-0.0436	0.0194	-0.229	0.0435	-0.0854	0.0611	0.00652
GGATCAG	0.0544	0.164	0.683	1.73	0.0109	1.6	0.258	0.0531	0.111	0.159
GCGTCCA	-0.019	0.132	0.118	-0.0604	-0.0695	0.257	-0.174	-0.0493	-0.00973	0.0588
ATAGTGA	0.0149	-0.0269	-0.224	-0.263	0.0148	-0.935	0.0834	0.0187	0.0273	0.0625
GGAACGA	0.0334	0.202	0.866	1.95	-0.0312	2.11	0.309	0.0528	0.0705	0.192
CCGCGCG	0.00481	-0.0438	-0.522	0.316	0.0827	-0.485	0.1	-0.0919	-0.07	-0.0397
GACATTG	0.107	0.0581	0.0294	0.539	-0.00155	-0.207	0.225	0.0529	0.109	0.00431
ATTCAGC	-0.011	0.019	-0.397	-0.664	0.095	-1.06	0.192	0.0366	0.0245	0.0129
TACCATA	0.00673	0.0563	-0.307	-2.6	0.0152	-0.592	-0.628	0.112	0.0237	-0.00291

Sequence	uncleaved DNA left (log2) [1]	uncleaved DNA left (log2) [2]	uncleaved DNA left (log2) [3]	uncleaved DNA left (log2) [4]	uncleaved DNA left (log2) [5]	uncleaved DNA left (log2) [6]	uncleaved DNA left (log2) [7]	uncleaved DNA left (log2) [8]	uncleaved DNA left (log2) [9]	uncleaved DNA left (log2) [10]
TAGGTTA	0.118	0.0181	0.3	-0.109	0.00463	1.39	-0.288	0.113	-0.0476	0.121
ATGCTTA	-0.0631	-0.247	-0.331	-1.37	-0.132	-0.696	-0.361	-0.101	-0.111	-0.218
CTACATC	0.14	0.27	0.038	-1.24	0.0294	-0.486	0.24	0.171	0.0712	0.193
ACGGCTA	0.024	-0.0247	-0.149	-0.557	-0.168	-0.368	-0.0616	-0.118	-0.174	-0.133
TAGCTGT	0.0876	0.0902	0.279	1.25	-0.0301	1.52	-0.321	0.0245	-0.14	0.0789
AACGATT	0.148	-0.146	-0.178	-2.09	0.0355	0.622	-0.575	-0.0302	-0.103	0.0256
TAATGTC	0.00535	-0.177	-4.07	-3.35	-0.0467	-3.42	-0.503	-3.45	-0.222	-3.54
GATTTTT	-3	-2.83	0.0899	-1.28	-0.113	1.13	-3	-0.102	0.0931	-0.0764
TCATTCG	0.0175	-0.0513	-0.728	0.601	0.0783	-0.539	0.0935	-0.208	-0.0306	-0.0996
TTGAAAT	0.184	0.122	0.111	0.0536	0.0391	-0.148	-0.568	-0.0417	0.203	0.254
GTGGTAT	0.116	0.16	0.496	1.26	-0.0792	2.11	0.0543	0.0806	0.115	0.1
AATGCTC	-0.0366	0.0277	-0.108	-0.374	-0.0633	-0.277	-0.051	-0.0197	-0.0987	-0.0513
TAAGCTA	-0.0112	-0.00537	-0.407	-2.42	-0.0284	0.779	0.101	0.0203	-0.203	-0.166
ACGGTCC	0.0422	0.0654	0.0623	-0.0257	-0.0965	-0.0315	-0.231	0.0466	-0.035	0.00942
TATCTCA	-0.061	0.052	-0.171	-1.98	-0.0715	-0.137	-0.145	-0.0926	0.0662	0.0121
CTGGGAT	0.0209	-0.0594	0.301	1.52	0.0372	1.82	0.134	0.0819	-0.193	-0.0678
CAATGTC	0.0971	-0.165	-3.16	-2.66	-0.0394	-2.15	-0.0208	-0.812	-0.0112	-0.74
GGGGCCG	-0.0527	0.0509	0.628	1.27	0.0149	1.48	0.171	0.0604	-0.0343	-0.0121
CGGATAC	0.0862	0.0706	-0.0341	0.519	0.0545	-0.113	0.273	0.0519	0.0838	0.0482
TTACAAC	-0.0658	-0.0181	-0.142	-2.6	0.0141	-0.297	-0.0291	-0.0282	-0.0965	-0.0259

Sequence	uncleaved DNA left (log2) [1]	uncleaved DNA left (log2) [2]	uncleaved DNA left (log2) [3]	uncleaved DNA left (log2) [4]	uncleaved DNA left (log2) [5]	uncleaved DNA left (log2) [6]	uncleaved DNA left (log2) [7]	uncleaved DNA left (log2) [8]	uncleaved DNA left (log2) [9]	uncleaved DNA left (log2) [10]
GCAACTC	0.0606	0.0741	0.0742	0.0291	-0.0237	-0.135	0.0814	-0.0434	0.0413	0.0603
GTGGAAC	-0.00167	0.0793	0.362	0.872	-0.0359	1.97	0.146	0.165	0.0312	0.0321
CCTCCTC	-0.0512	-0.0419	0.128	-0.154	-0.0984	-0.149	-0.0977	-0.0681	-0.00095	-0.0416
GCTCAGC	-0.0104	-0.0158	-0.227	0.0915	-0.132	-0.648	0.0567	0.0585	-0.0256	-0.0975
AGGAATT	-0.0162	0.0707	0.397	0.377	0.197	1.5	-0.494	0.0193	-0.0323	0.186
CCTTGCG	-0.0147	-0.0376	-0.261	1.27	0.0484	0.834	0.0872	-0.121	-0.289	-0.0683
GCGGGAT	0.322	0.224	0.522	1.64	0.0557	1.95	0.36	0.203	0.0645	0.162
GAGCTAA	-0.0677	-0.0533	-0.0468	0.327	-0.159	0.72	-0.592	-0.23	-0.116	-0.0766
GACCAGA	-0.0158	0.0177	0.258	0.396	-0.0146	0.0658	-0.00458	-0.034	-0.0249	0.0426
AGTCAAG	-0.00953	0.0168	-0.671	-0.493	-0.00179	-1.02	0.193	0.081	0.045	-0.108
CGCTCCA	0.0425	-0.0116	0.0852	-0.472	0.0625	0.0827	-0.0917	-0.0297	-0.029	0.0352
ATACTTG	0.12	-0.0576	-0.386	-1.38	-0.0455	-0.992	0.13	-0.0071	-0.0223	-0.0654
CGCCAGA	0.0232	0.0645	0.0988	0.158	-0.0326	-0.31	0.156	0.0249	0.0416	0.0741
CGGGCCT	0.071	0.01	0.575	1.02	0.0469	1.68	0.0861	-0.0336	-0.0524	-0.0883
TTCTTAT	-0.532	0.00539	0.274	-0.525	0.202	-0.157	-1.84	0.0835	0.0659	0.102
TAGGAAC	-0.0323	0.0259	0.158	0.896	-0.0718	0.931	0.0637	0.0918	-0.12	-0.0348
CGGGGGT	-0.0771	-0.0891	0.363	1.19	0.0523	1.83	0.282	-0.0435	-0.0565	-0.0775
GTGTTGG	-0.0472	0.0443	0.0629	0.189	0.0127	-0.2	0.0675	0.0148	0.0625	-0.0144
TACGTTC	-0.0243	-0.159	-0.0604	-1.65	-0.012	-0.54	-0.162	-0.157	-0.0719	-0.274
ACCTTGG	-0.143	-0.0321	-0.874	-0.386	-0.135	-1.24	0.0335	-0.117	-0.071	-0.175
